# Results published in the antibiotic and cytotoxicity screens of Wong et al. (2023).
# The other results are listed elsewhere or left out.
# System: HSkMC (human skeletal muscle cells)
# Assay: cytotoxicity call (relative viability < 0.9)
# Settings: 10 µM
row,Structure (SMILES),cytotoxicity call
1,COc1cccc(C#Cc2ccc3c(c2)O[C@H](CN(C)C(C)=O)[C@@H](C)CN([C@@H](C)CO)S3(=O)=O)c1,inactive
2,O=C(C[C@H]1C[C@@H]2c3cc(NC(=O)Nc4ccc(C(F)(F)F)cc4)ccc3O[C@@H]2[C@@H](CO)O1)NCCc1ccccc1,inactive
3,C[C@@H]1CN([C@@H](C)CO)C(=O)c2cc(NC(=O)CCC(F)(F)F)ccc2O[C@@H](C)CCCCO[C@@H]1CN(C)C(=O)Nc1cccc2ccccc12,inactive
4,CC(C)NC(=O)N(C)C[C@@H]1Oc2c(NS(=O)(=O)c3cn(C)cn3)cccc2C(=O)N([C@@H](C)CO)C[C@@H]1C,inactive
5,C[C@H](CO)N1C[C@H](C)[C@H](CN(C)S(=O)(=O)c2cccs2)Oc2ncc(C#CC(C)(C)O)cc2C1=O,inactive
6,Cc1noc(C)c1S(=O)(=O)N(C)C[C@@H]1Oc2ccc(NS(=O)(=O)c3ccc(F)cc3)cc2CC(=O)N([C@@H](C)CO)C[C@H]1C,inactive
7,NCC[C@@H]1CC[C@H](NC(=O)C2CCCC2)[C@H](CO)O1,inactive
8,C[C@@H]1CN([C@@H](C)CO)C(=O)Cc2cc(NC(=O)Nc3ccc(C(F)(F)F)cc3)ccc2O[C@@H]1CN(C)Cc1ccc(Cl)c(Cl)c1,active
9,[N-]=[N+]=Nc1ccccc1[C@H]1OC(c2ccc(OCCCO)cc2)=N[C@@]1(CCS(=O)(=O)c1ccccc1)C(=O)N1CCCCC1,inactive
10,Cc1noc(C)c1S(=O)(=O)N(C)C[C@H]1OCCCC[C@@H](C)Oc2ccc(N(C)C)cc2C(=O)N([C@H](C)CO)C[C@@H]1C,inactive
11,C[C@H]1CN([C@@H](C)CO)C(=O)c2cc(NC(=O)Nc3ccc4c(c3)OCO4)ccc2O[C@H]1CN(C)Cc1ccc(Oc2ccccc2)cc1,inactive
12,COCC(=O)Nc1ccc2c(c1)[C@@H]1C[C@@H](CC(=O)N3CCOCC3)O[C@H](CO)[C@@H]1O2,inactive
13,C[C@@H]1CCCCO[C@@H](CN(C)S(=O)(=O)c2cccs2)[C@H](C)CN([C@H](C)CO)C(=O)c2cc(NC(=O)Cc3ccccc3)ccc2O1,inactive
14,C[C@@H]1CCCCO[C@@H](CN(C)S(=O)(=O)c2ccc(F)cc2)[C@H](C)CN([C@H](C)CO)C(=O)c2cc(NC(=O)Nc3ccc(F)cc3)ccc2O1,inactive
15,C[C@@H]1CN([C@@H](C)CO)C(=O)c2cc(NC(=O)C3CCCCC3)ccc2O[C@@H]1CN(C)Cc1ccc(Oc2ccccc2)cc1,inactive
16,NCCCCNCCCN,inactive
17,CO[C@H]1CN(C)C(=O)c2cc(NC(=O)Nc3cccc(Cl)c3)ccc2OC[C@H](C)N(C(=O)Nc2c(C)noc2C)C[C@@H]1C,inactive
18,C[C@@H]1CCCCO[C@H](CN(C)C(=O)Cc2ccccc2)[C@@H](C)CN([C@@H](C)CO)C(=O)c2cc(NS(=O)(=O)c3cccs3)ccc2O1,inactive
19,C[C@@H]1CCCCO[C@@H](CN(C)C(=O)Nc2ccccc2)[C@H](C)CN([C@H](C)CO)C(=O)c2cc(NC(=O)Cc3ccccc3)ccc2O1,inactive
20,C[C@@H]1CCCCO[C@@H](CN(C)C(=O)Nc2cccc3ccccc23)[C@H](C)CN([C@@H](C)CO)C(=O)c2cc(NC(=O)c3ccncc3)ccc2O1,inactive

row,Structure (SMILES),cytotoxicity call
1,COC(=O)c1c(CC[C@@H](CO)NC(=O)N[C@@H](C)Cn2cc(C3(O)CCCCC3)nn2)oc(C(C)=O)c1C(=O)OC,inactive
2,COC(=O)Nc1nc2cc(C(=O)c3ccccc3)ccc2[nH]1,inactive
3,C[C@@H](O)C#Cc1ccc2c(c1)O[C@@H](CN(C)C(=O)c1ccccc1)[C@@H](C)CN([C@@H](C)CO)S2(=O)=O,inactive
4,CS(=O)(=O)Nc1ccc2c(c1)[C@@H]1C[C@@H](CC(=O)NCc3ccc(-c4ccccc4)cc3)O[C@@H](CO)[C@@H]1O2,active
5,CC(C)(C)[S@@](=O)N1Cc2cc(C(=O)NCc3ccccn3)nc(-c3cccc(-c4ccccc4F)c3)c2[C@H]1CCO,inactive
6,C[C@H]1CN([C@@H](C)CO)S(=O)(=O)c2ccc(Br)cc2O[C@H]1CN(C)C(=O)NC1CCCCC1,inactive
7,C[C@@H]1CN([C@H](C)CO)S(=O)(=O)c2ccc(C#Cc3ccccc3F)cc2O[C@H]1CN(C)C(=O)Cc1cccnc1,inactive
8,COc1ccc(NC(=O)Nc2ccc3c(c2)C(=O)N([C@@H](C)CO)C[C@@H](C)[C@@H](CN(C)Cc2ccc(C(=O)Nc4ccccc4N)cc2)O3)cc1,inactive
9,CC(C)NC(=O)N[C@H]1C=C[C@H](CC(=O)O)O[C@H]1CO,inactive
10,CC(C)(C)OC(=O)N1CCNC(=O)C1,inactive
11,COc1ccc(CN(C)C[C@H]2Oc3ccc(NS(C)(=O)=O)cc3C(=O)N([C@@H](C)CO)C[C@@H]2C)cc1,inactive
12,C[C@@H]1CN([C@@H](C)CO)C(=O)Cc2cc(NC(=O)Nc3cccc4ccccc34)ccc2O[C@H]1CN(C)Cc1ccc(Oc2ccccc2)cc1,inactive
13,C[C@@H]1CN([C@@H](C)CO)C(=O)c2cc(-c3cncnc3)cnc2O[C@@H]1CN(C)C(=O)Nc1ccc2c(c1)OCO2,inactive
14,C[C@@H]1CCCCO[C@@H](CN(C)C(=O)Nc2cccc3ccccc23)[C@@H](C)CN([C@H](C)CO)C(=O)c2cc(NS(=O)(=O)c3ccc(F)cc3)ccc2O1,inactive
15,COCC(=O)Nc1ccc2c(c1)C(=O)N(C)[C@@H]1CC[C@@H](CC(=O)N3CCc4ccccc4C3)O[C@H]1CO2,inactive
16,C[C@@H]1CN([C@H](C)CO)C(=O)c2cc(NC(=O)Nc3ccc(C(F)(F)F)cc3)ccc2O[C@@H](C)CCCCO[C@@H]1CN(C)S(=O)(=O)c1ccccc1,inactive
17,CO[C@H](C(=O)[C@@H](O)[C@@H](C)O)[C@@H]1Cc2cc3cc(O[C@H]4C[C@@H](O[C@H]5C[C@@H](O)[C@H](O)[C@@H](C)O5)[C@@H](O)[C@@H](C)O4)c(C)c(O)c3c(O)c2C(=O)[C@H]1O[C@H]1C[C@@H](O[C@H]2C[C@@H](O[C@H]3C[C@](C)(O)[C@H](O)[C@@H](C)O3)[C@H](O)[C@@H](C)O2)[C@H](O)[C@@H](C)O1,inactive
18,C[C@H](O)C#Cc1ccc2c(c1)O[C@H](CN(C)C(=O)CN(C)C)[C@H](C)CN([C@@H](C)CO)S2(=O)=O,inactive
19,Cc1noc(C)c1S(=O)(=O)Nc1ccc2c(c1)C(=O)N([C@H](C)CO)C[C@H](C)[C@H](CN(C)Cc1ccc(C(=O)Nc3ccccc3N)cc1)OCCCC[C@@H](C)O2,inactive
20,CC1=NN(c2ccccc2)C(=O)C1,inactive
